“And” between values parts separate entries of the source, which are not always exact repeats. Identical values can stand only once. In all, about 390,000 compounds went through this assay and about 17,000 (4.4%) were called active. The inconclusive results got no clear call from the source; some entries with a clear call stand among them for comparison. Calls follow the shape of the dose curve; as a rule, active = well fitted inhibition curve with a large enough effect; inconclusive = small, poorly fitted or top-dose-only effect; inactive = no such curve, though single readings can be large or run the other way. Where the call is inconclusive, the potency comes from a doubtful curve fit.
Each compound was assayed against Lysine-specific demethylase 4A (Homo sapiens) (UniProt O75164) (assay: qHTS Assay for Inhibitors of JMJD2A-Tudor Domain). Details: AlphaScreen JMJD2A-Tudor / H3K4me3 peptide binding; series mostly up to 114 µM.
UniProt O75164, sequence (O75164 whole entry, looked up, the tested form may be a part): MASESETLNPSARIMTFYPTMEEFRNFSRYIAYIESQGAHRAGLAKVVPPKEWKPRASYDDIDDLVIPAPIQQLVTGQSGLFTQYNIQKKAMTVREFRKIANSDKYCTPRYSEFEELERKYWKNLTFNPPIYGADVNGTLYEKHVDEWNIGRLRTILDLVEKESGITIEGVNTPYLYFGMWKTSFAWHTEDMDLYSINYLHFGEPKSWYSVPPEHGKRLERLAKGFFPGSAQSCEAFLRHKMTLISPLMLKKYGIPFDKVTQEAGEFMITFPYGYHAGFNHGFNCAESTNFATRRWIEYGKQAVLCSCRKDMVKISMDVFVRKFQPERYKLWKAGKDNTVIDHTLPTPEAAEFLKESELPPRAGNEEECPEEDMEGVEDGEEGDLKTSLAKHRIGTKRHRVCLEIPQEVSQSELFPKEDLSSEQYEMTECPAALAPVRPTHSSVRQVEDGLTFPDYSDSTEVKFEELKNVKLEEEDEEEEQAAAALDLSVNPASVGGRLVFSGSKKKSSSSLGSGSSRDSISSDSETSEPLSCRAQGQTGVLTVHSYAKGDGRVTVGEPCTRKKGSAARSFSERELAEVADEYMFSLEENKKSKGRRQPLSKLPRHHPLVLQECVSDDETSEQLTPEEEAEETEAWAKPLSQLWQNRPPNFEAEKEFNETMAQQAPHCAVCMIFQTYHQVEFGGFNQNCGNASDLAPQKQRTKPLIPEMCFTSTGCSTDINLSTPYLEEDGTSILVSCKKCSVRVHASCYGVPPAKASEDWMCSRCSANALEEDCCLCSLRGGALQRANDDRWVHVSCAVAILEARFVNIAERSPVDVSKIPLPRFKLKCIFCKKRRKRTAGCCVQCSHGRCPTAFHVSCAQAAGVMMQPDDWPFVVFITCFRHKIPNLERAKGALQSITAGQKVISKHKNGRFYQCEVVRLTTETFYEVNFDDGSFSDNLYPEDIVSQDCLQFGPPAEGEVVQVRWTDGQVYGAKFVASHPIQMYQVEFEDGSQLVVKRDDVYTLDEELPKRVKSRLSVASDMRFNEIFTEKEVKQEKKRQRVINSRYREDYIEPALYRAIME
Also: nearly all actives have a fitted effect of over 50% in size.
Potency is read from the fitted curve at half-maximal effect; tags tell the direction and shape of the fitted curve.

| SMILES | Potency |
| --- | --- |
| O=C(NCc1cccc(Cl)c1)c1cccc(S(=O)(=O)N2CCCCC2)c1 | inactive |
| COc1ccc(C)cc1NC(=O)C(Sc1nnc(Nc2cc(C)ccc2OC)s1)c1ccccc1 (centres undefined) | inconclusive: 31.6 µM [inhibitor, single point] |
| O=C(NC(=S)Nc1cc(Cl)ccc1N1CCOCC1)c1ccccc1[N+](=O)[O-] | inconclusive: 44.7 µM [inhibitor, partial curve] |
| CCCCNC(=S)N1CCN(CC)CC1 | active: 44.7 µM |
| CC(C)c1ccc(NC(=O)C2CCCN(S(=O)(=O)c3ccc(Br)s3)C2)cc1 (centres undefined) | inactive |
| CN(Cc1ccccc1)C(=S)Nc1ccc(OC(F)F)cc1 | inactive |
| CCc1ccc(NS(=O)(=O)c2ccc3[nH]cc(C(=O)NC4CCCC4)c(=O)c3c2)cc1 | inconclusive: 6.31 µM [inhibitor, full curve] |
| CCOc1ccc(Nc2n[nH]c(=S)s2)cc1 | inconclusive: 2.82 µM [inhibitor, full curve] |
| CC(C)(CCc1ccccn1)C(=O)C(CCc1ccccn1)CCc1ccccn1 | inactive |
| COc1ccc(OC)c2c(C)cc(N3CCCN(C)CC3)nc12 | inactive |
| COc1cccc(-n2c(N)c(-c3nc4ccccc4[nH]3)sc2=S)c1 | inconclusive: 12.6 µM [inhibitor, partial curve, poor fit] |
| O=C(CSc1nc(=O)[nH]c2c1CCCC2)Nc1cc(C(F)(F)F)ccc1Cl | inactive |
| CCc1ccccc1OCCCCN1CCCCC1 | active: 1.78 µM |
| COc1ccc(NS(=O)(=O)c2ccc3nc(COc4ccc5ccccc5c4)[nH]c3c2)cc1 | inconclusive: 70.8 µM [inhibitor, single point] |
| Cc1cc(/C=C(\C#N)C(=O)O)c(C)n1CC1CCCO1 (centres undefined) | active: 14.1 µM |
| O=C(c1ccc(COc2ccccc2Cl)o1)N1CCN(Cc2ccc3c(c2)OCO3)CC1 | inconclusive: 11.2 µM [inhibitor, partial curve, poor fit] and inconclusive: 39.8 µM [inhibitor, partial curve] |
| CCN(CCCNC(=O)CNC(=O)c1nn(-c2ccc(OC)cc2)c(=O)c2ccccc12)c1cccc(C)c1 | inconclusive: 25.1 µM [inhibitor, full curve] |
| Cc1cccc(OC2=NS(=O)(=O)c3ccccc32)c1 | inconclusive: 126 µM [inhibitor, single point] |
| Cn1c2cc(Br)sc2c2cnn(Cc3ccc(F)cc3F)c(=O)c21 | inconclusive: 100 µM [inhibitor, single point] |
| Cc1c2cnn(CC(=O)Nc3c(F)c(F)cc(F)c3F)c(=O)c2c(C)n1Cc1ccccc1F | inconclusive: 44.7 µM [inhibitor, partial curve] |
| C#CCN1Cc2ccccc2Oc2cc(Br)ccc2S1(=O)=O | inactive |
| Fc1ccccc1OCCCCN1CCCCC1 | active: 79.4 µM |
| COc1cccc(/C=N/Nc2nc(Nc3ccc([N+](=O)[O-])cc3)nc(N3CCCC3)n2)c1O | inconclusive: 12.6 µM [inhibitor, full curve] |
| CCC(C)(C)NC(=O)CN(C(=O)CCC(=O)Nc1nccs1)c1ccc2c(c1)OCO2 | inconclusive: 1.26 µM [inhibitor, full curve, poor fit] |
| COc1cccc2cc(-c3nc4sc(C(=O)Nc5ccc(F)cc5F)c(C)c4c(=O)[nH]3)c(=O)oc12 | inactive |

| SMILES | Potency |
| --- | --- |
| COc1ccc(/C=C/C2=CC(C)(C)NC(=S)N2)c(OC)c1 | inconclusive: 35.5 µM [inhibitor, partial curve] |
| Cc1ccc(-c2cc(-c3ccc(Cl)cc3)c(C#N)c(N)n2)o1 | active: 79.4 µM |
| CCOC(=O)N1CCN(CCC(=O)Nc2ccc(OC)cc2)CC1 | inactive |
| O=[N+]([O-])c1ccc(Oc2cccc(C(F)(F)F)c2)nc1 | inconclusive: 20 µM [inhibitor, full curve] |
| Cc1ccc(CNc2ncnc3cc(-c4ccc5c(c4)OCO5)ccc23)o1 | inconclusive: 50.1 µM [inhibitor, partial curve] |
| COc1ccc(-c2cc(C(C)=O)c(C)n2CCC(=O)Nc2cc(C)ccc2OC)cc1 | inconclusive: 56.2 µM [inhibitor, partial curve] |
| CN(C(=O)CSc1nc2ncccc2o1)c1ccc(F)cc1 | inactive |
| COc1ccc2[nH]c3c(c2c1)CCN1C(=O)N([C@@H](C)C(=O)NC2CCN(Cc4ccccc4)CC2)C(=O)[C@]31C | inconclusive: 44.7 µM [inhibitor, partial curve] |
| Nc1ccccc1Nc1cc(-c2ccccc2)nn1-c1cccc(Cl)c1 | active: 20 µM |
| NC(=O)Cc1ccc(C(=O)CSc2nnc(-c3ccncc3)n2C2CC2)s1 | inconclusive: 35.5 µM [inhibitor, partial curve] |
| O=C(Nc1nsc(-c2ccccc2)n1)c1ccc(F)cc1 | inactive |
| Cc1cc(OCCN2CCOCC2)nc2ccccc12 | inactive |
| CCOc1ccc(Nc2nc(-c3sc(N)nc3C)cs2)cc1 | active: 50.1 µM |
| O=C(NC(Cc1ccccc1)c1nc2ccccc2[nH]1)C1CC(=O)N(c2ccc3c(c2)OCCO3)C1 (centres undefined) | inconclusive: 89.1 µM [inhibitor, single point] |
| O=c1c2cc(O)c(O)cc2oc2cc(O)c(C3OC(CO)C(O)C(O)C3O)c(O)c12 (centres undefined) | active: 7.94 µM |
| Cc1ccccc1OCC(=O)OCC(=O)Nc1ncc(Cl)c(C)c1Cl | inconclusive: 56.2 µM [inhibitor, partial curve] |
| CC(CNC(=O)Cn1ncc2c3ccccc3n(Cc3cccc(Cl)c3)c2c1=O)c1ccccc1 (centres undefined) | inconclusive: 79.4 µM [inhibitor, partial curve] |
| C=CCNc1nc(-c2ccccn2)nnc1-c1ccccc1 | active: 35.5 µM |
| O=C(NNc1ccccc1)C(=O)NNS(=O)(=O)c1ccc(CCCl)cc1 | inactive |
| O=C(Nc1ccc(-n2cccn2)cc1)C1CCN(Cc2ccccn2)CC1 | active: 22.4 µM |
| Cc1ccc(S(=O)(=O)Nc2cc(Cl)c(O)c3ncccc23)cc1 | active: 22.4 µM |
| COc1cccc(CN(C(=O)c2cccs2)C2CCS(=O)(=O)C2)c1 (centres undefined) | active: 56.2 µM |
| Cc1cc2c(cc1S(=O)(=O)CCC(=O)NCCc1ccccc1)OCC(=O)N2 | inactive |
| CCOC(=O)C1CCN(CC(O)COC(CC)c2ccccc2)CC1 (centres undefined) | inactive |
| COc1ccc(N=C2C(=Nc3ccc(OC)cc3)N(c3ccccc3)C(=S)N2C(=O)c2ccc(Cl)cc2)cc1 | inconclusive: 1 µM [inhibitor, full curve] |

| SMILES | Potency |
| --- | --- |
| CC1(C)Cc2c(sc(NC(=O)C(=O)N3CCOCC3)c2C#N)CO1 | active: 14.1 µM |
| Cc1cc(C)cc(OCCCCn2cncn2)c1 | active: 28.2 µM |
| COc1ccc(C(=O)COC(=O)Cn2cnc3ccccc3c2=O)c(OC)c1 | inactive |
| CCOC(=O)C1=C(C)N=c2s/c(=C/c3cccc([N+](=O)[O-])c3O)c(=O)n2C1c1cc(OC)c(OC)c(OC)c1 (centres undefined) | active: 14.1 µM |
| Cc1ccc(S(=O)(=O)N2CN(CC3CCCO3)c3nc4ccccc4nc32)cc1 (centres undefined) | inactive |
| COc1ccccc1Nc1ncccc1C(=O)O | inactive |
| CCN1CCN(S(=O)(=O)c2ccc(Cl)c(C(=O)Nc3ccccc3N3CCCCC3)c2)CC1 | inconclusive: 20 µM [inhibitor, full curve] |
| CN(C)S(=O)(=O)c1ccc(C(=O)Oc2cc(=O)[nH]c3ccccc23)cc1 | inactive |
| NC(=S)N/N=C/c1ccc(-n2nncc2-c2ccc(Cl)cc2)cc1 | inconclusive: 56.2 µM [inhibitor, partial curve] |
| Cc1ccc(-c2ccc(/C=C(\C#N)C(N)=S)o2)c([N+](=O)[O-])c1 | active: 14.1 µM |
| COc1ccc(NC(=S)NCCCn2ccnc2)cc1 | inconclusive: 70.8 µM [inhibitor, partial curve] |
| COc1ccc(-n2c(SCC(=O)Nc3cccc(S(N)(=O)=O)c3)nc3ccccc3c2=O)cc1OC | inactive |
| CCCNC1(C(N)=O)CCN(Cc2ccccc2)CC1 | inactive |
| CSc1ccc(CN(C)C(=O)c2cc(Cl)c3c(c2)OCCO3)cc1 | inactive |
| Clc1ccc(-c2nnc(NCCN3CCCC3)c3ccccc23)cc1 | inconclusive: 89.1 µM [inhibitor, partial curve] |
| CC1CCCN(c2ccc(C(=O)Nc3ccc4c(c3)OCO4)cc2[N+](=O)[O-])C1 (centres undefined) | inconclusive: 12.6 µM [inhibitor, partial curve] |
| Cc1nc(SCN2C(=O)c3ccccc3C2=O)n[nH]1 | inconclusive: 89.1 µM [inhibitor, single point] |
| O=C(O)/C=C\C(=O)Nc1ccccc1C(=O)N1CCN(c2ccc(Cl)cc2)CC1 | inconclusive: 79.4 µM [inhibitor, partial curve] |
| COc1cccc(CNCc2cccc(Br)c2)c1OC | inconclusive: 2.82 µM [inhibitor, partial curve] |
| CCOc1ccc2c(c1)NC(c1cccs1)=NC(c1ccc(F)cc1)=N2 | inconclusive: 44.7 µM [inhibitor, partial curve] |
| CN(C)C(CNS(=O)(=O)c1cc([N+](=O)[O-])ccc1Cl)c1ccco1 (centres undefined) | inconclusive: 56.2 µM [inhibitor, partial curve] |
| Clc1nc(NC2CCCC2)nc(N2CCOCC2)n1 | inconclusive: 89.1 µM [inhibitor, single point] |
| COc1cc(C(C[N+](=O)[O-])c2c(C)[nH]c3ccccc23)ccc1O (centres undefined) | inconclusive: 63.1 µM [inhibitor, partial curve, poor fit] |
| COc1ccc(N2CCN(c3nc4ccc(C)cc4n4nnnc34)CC2)cc1 | inactive |
